Experimental findings from the supplement of paper PMC12217912 are described below.

B1: TEV protease; numbered along this chain (parent)
chain: MGESLFKGPRDYNPISSSICHLTNESDGHTTSLYGIGFGPFIITNKHLFRRNNGTLVVQSLHGVFKVKDTTTLQQHLVDGRDMIIIRMPKDFPPFPQKLKFREPQREERICLVTTNFQTKSMSSMVSDTSCTFPSGDGIFWKHWIQTKDGQCGSPLVSTRDGFIVGIHSASNFTNTNNYFTSVPKNFMELLTNQEAQQWVSGWRLNADSVLWGGHKVFMVKPEEPFQPVKEATQL

The variants in this assay derive from B1. The experiment in a line: raw area under fraction-flipped curve 0-4 h after induction (AUC4h, not background-subtracted), DNA-recorder readout of cleavage of the substrate (dimensionless); higher = more cleavage of the substrate by the protease variant. Particulars: temperature: 34 °C; time window: 0-4 h after rhamnose induction. Here is the method:
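In vivo DNA recorder in E. coli TOP10(DE3) ΔrhaA at 34 °C. Each TEVp single-site mutant (parent TEVp 0) is paired with a single-site variant of the 7-mer TEVs (canonical ENLYFQ|S). The substrate sits between flexible linkers in a Bxb1-sfGFP-TEVs-SsrA fusion, so cleavage stabilises Bxb1 and speeds flipping of a recombination array, read by NGS. The value is the raw area under the fraction-flipped curve over 0-4 h after rhamnose induction (AUC4h), with ≥20 reads per time point. It is not background-subtracted; inactive controls average about 0.047.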

The list shows a part of the results. The full chains were built here from the parent and the listed change. Inactive controls read about 0.05.
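Note: Bxb1 expression induced with 0.2% (w/v) L-rhamnose at OD600 near 0.5, cultures sampled hourly, flipped fraction per protease–substrate barcode pair counted by paired-end Illumina sequencing.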

For the variant MGESLFKGPRDYNPISSSICHLTNESDGHTTSLYGIGFGPFIITNKHLFRRNNGTLVVQSLHGVFKVKDTTTLQQHLVDGRDMIIIRMPKDFPPFPQKLKFREPQREERICLVTTNFQTKSMSSMVSDTSCTFPSGDGIFWKHWIQTKDGQCGSPLVSTRDGFIVGIHRASNFTNTNNYFTSVPKNFMELLTNQEAQQWVSGWRLNADSVLWGGHKVFMVKPEEPFQPVKEATQL [S169R], the “area with substrate ENLYAQS” value was found to be 0.0623, the “area with substrate ENLYDQS” value came to 0.0773, the “area with substrate ENLYEQS” value was found to be 0.0722 and the “area with substrate ENLYHQS” value was determined as 0.0553. Also, the “area with substrate ENLYIQS” value is 0.0606, the “area with substrate ENLYKQS” value was found to be 0.0564, the “area with substrate ENLYLQS” value stood at 0.0738 and the “area with substrate ENLYMQS” value worked out at 0.081. Also, the “area with substrate ENLYNQS” value was 0.0667, the “area with substrate ENLYPQS” value stood at 0.0801, the “area with substrate ENLYRQS” value worked out at 0.0625 and the “area with substrate ENLYSQS” value came to 0.0654. The “area with substrate ENLYTQS” value was determined as 0.0775, the “area with substrate ENLYVQS” value was 0.0667 and the “area with substrate ENLYWQS” value amounted to 0.0687.

As for MGESLFKGPRDYNPISSSICHLTNESDGHTTSLYGIGFGPFIITNKHLFRRNNGTLVVQSLHGVFKVKDTTTLQQHLVDGRDMIIIRMPKDFPPFPQKLKFREPQREERICLVTTNFQTKSMSSMVSDTSCTFPSGDGIFWKHWIQTKDGQCGSPLVSTRDGFIVGIHSASNFTNTNNYFTSVPKNFMELLTNQEAQQWVLGWRLNADSVLWGGHKVFMVKPEEPFQPVKEATQL [S201L], the “area with substrate ENLYAQS” value stood at 0.086, the “area with substrate ENLYDQS” value is 0.0628, the “area with substrate ENLYEQS” value was 0.066 and the “area with substrate ENLYGQS” value worked out at 0.0535. The “area with substrate ENLYHQS” value was determined as 0.0562, the “area with substrate ENLYIQS” value came out at 0.0757, the “area with substrate ENLYKQS” value stood at 0.0624 and the “area with substrate ENLYLQS” value came to 0.0791. For the same variant, the “area with substrate ENLYMQS” value was 0.089, the “area with substrate ENLYPQS” value stood at 0.0771, the “area with substrate ENLYQQS” value was found to be 0.0529 and the “area with substrate ENLYSQS” value worked out at 0.0678. For the same variant, the “area with substrate ENLYTQS” value is 0.0931 and the “area with substrate ENLYYQS” value came to 0.0681.

As for MGESLFKGPRDYNPISSSICHLTNESDGHTTSLYGIGFGPFIITNKHLFRRNNGTLVVQSLHGVFKVKDTTTLQQHLVDGRDMIIIRMPKDFPPFPQKLKFREPQREERICLVTTNFQTKSMSSMVSDTSCTFPSGDGIFWKHWIQTKDGICGSPLVSTRDGFIVGIHSASNFTNTNNYFTSVPKNFMELLTNQEAQQWVSGWRLNADSVLWGGHKVFMVKPEEPFQPVKEATQL [Q151I], the “area with substrate ENLYAQS” value was 0.0617, the “area with substrate ENLYDQS” value worked out at 0.0665, the “area with substrate ENLYEQS” value turned out to be 0.0639 and the “area with substrate ENLYGQS” value worked out at 0.0584. Also, the “area with substrate ENLYHQS” value was found to be 0.0715, the “area with substrate ENLYIQS” value turned out to be 0.0806, the “area with substrate ENLYKQS” value was found to be 0.0208 and the “area with substrate ENLYMQS” value was 0.0824. For the same variant, the “area with substrate ENLYPQS” value amounted to 0.0597, the “area with substrate ENLYQQS” value was found to be 0.0503, the “area with substrate ENLYRQS” value turned out to be 0.0581 and the “area with substrate ENLYSQS” value was 0.062. For the same variant, the “area with substrate ENLYVQS” value is 0.125, the “area with substrate ENLYWQS” value amounted to 0.0623 and the “area with substrate ENLYYQS” value was 0.0798.

On to MGESLFKGPRDYNPISSSICHLTNESDGHTTSLYGIGFGPFIITNKHLFRRNNGTLVVQSLHGVFKVKDTTTLQQHLVDGRDMIIIRMPKDFPPFPQKLKFREPQREERICLVTTNFQTKSMSSMVSDTSCTFPSGDGIFWKHWIQTKDGQCGSPLVSTRDGFIVGIHSASNFTNTNNYFTSVPKNFMELLTNQEAQQWVSGWRLTADSVLWGGHKVFMVKPEEPFQPVKEATQL [N206T], for which the “area with substrate ENLYAQS” value came out at 0.0798, the “area with substrate ENLYCQS” value came to 0.0869, the “area with substrate ENLYGQS” value was 0.0592 and the “area with substrate ENLYHQS” value was 0.0447. Besides, the “area with substrate ENLYIQS” value worked out at 0.12, the “area with substrate ENLYMQS” value amounted to 0.0873, the “area with substrate ENLYNQS” value turned out to be 0.0734 and the “area with substrate ENLYSQS” value is 0.0584. Moreover, the “area with substrate ENLYWQS” value was determined as 0.0654.

For MGESLFKGPRDYNPISSSICHLTNESDGHTTSLYGIGFGPFIITNKHLFRRNNGTLVVQSLHGVFKVKDTTTLQQHLVDGRDMIIIRMPKDFPPFPQKLKFREPQREERICLVTTNFQTKSMSSMVSDTSCTFPSGDGIFWKHWIQTKDGQCGSPLVSTRDGFIVGIHSASNFTNTNNYFTSVPKNFMELLTNQEAQQWVSGWRLNADSVLWGGRKVFMVKPEEPFQPVKEATQL [H215R], the “area with substrate ENLYAQS” value came out at 0.0701, the “area with substrate ENLYCQS” value was 0.0701, the “area with substrate ENLYDQS” value came to 0.0581 and the “area with substrate ENLYEQS” value was 0.0636. For the same variant, the “area with substrate ENLYGQS” value amounted to 0.0545, the “area with substrate ENLYHQS” value amounted to 0.0417, the “area with substrate ENLYIQS” value came out at 0.0364 and the “area with substrate ENLYLQS” value stood at 0.0607. In addition, the “area with substrate ENLYMQS” value stood at 0.0597, the “area with substrate ENLYNQS” value was determined as 0.0694, the “area with substrate ENLYPQS” value amounted to 0.07 and the “area with substrate ENLYQQS” value was 0.0642. In addition, the “area with substrate ENLYTQS” value was 0.0597, the “area with substrate ENLYVQS” value is 0.0728, the “area with substrate ENLYWQS” value was 0.0479 and the “area with substrate ENLYYQS” value came to 0.0506.

Take MGESLFQGPRDYNPISSSICHLTNESDGHTTSLYGIGFGPFIITNKHLFRRNNGTLVVQSLHGVFKVKDTTTLQQHLVDGRDMIIIRMPKDFPPFPQKLKFREPQREERICLVTTNFQTKSMSSMVSDTSCTFPSGDGIFWKHWIQTKDGQCGSPLVSTRDGFIVGIHSASNFTNTNNYFTSVPKNFMELLTNQEAQQWVSGWRLNADSVLWGGHKVFMVKPEEPFQPVKEATQL [K7Q]: the “area with substrate ENLYAQS” value is 0.0679, the “area with substrate ENLYCQS” value came out at 0.0732, the “area with substrate ENLYDQS” value came to 0.0757 and the “area with substrate ENLYEQS” value was determined as 0.0826. The “area with substrate ENLYGQS” value turned out to be 0.0787, the “area with substrate ENLYHQS” value turned out to be 0.0443, the “area with substrate ENLYIQS” value was determined as 0.117 and the “area with substrate ENLYKQS” value is 0.0594. Moreover, the “area with substrate ENLYMQS” value came to 0.071, the “area with substrate ENLYNQS” value was 0.0688, the “area with substrate ENLYQQS” value is 0.081 and the “area with substrate ENLYRQS” value was determined as 0.06. For the same variant, the “area with substrate ENLYTQS” value came to 0.0799, the “area with substrate ENLYWQS” value was determined as 0.0873 and the “area with substrate ENLYYQS” value turned out to be 0.0631.

As to MGESLFKGPRDYNPISSSICHLTNESDGHTTSLYGIGFGPFIITNKHLFRRNNGTLVVQSLHGVFKVKDTTTLQQHLVDGRDMIIIRMPKDFPPFPQKLKFREPQREERICLVTTNFQTKSMSSMVSDTSCTFPSGDGIFWKHWIQTKDGQCGSPLVSTRDGFIVGIHSASNFTNTNNYFTSVPKNFMELLTNQEAQQWVSGWRLNADSVLWGAHKVFMVKPEEPFQPVKEATQL [G214A], the “area with substrate ENLYAQS” value amounted to 0.0688, the “area with substrate ENLYDQS” value turned out to be 0.0591, the “area with substrate ENLYEQS” value was determined as 0.0269 and the “area with substrate ENLYGQS” value amounted to 0.0654. Further, the “area with substrate ENLYHQS” value was determined as 0.0597, the “area with substrate ENLYLQS” value was determined as 0.0454, the “area with substrate ENLYMQS” value was 0.0783 and the “area with substrate ENLYNQS” value was determined as 0.0529. Moreover, the “area with substrate ENLYVQS” value was 0.0734.

Consider MGESLFKGPRDYNPISSSICHLTNESDGHTTSLYGIGFGPFIITNKHLFRRNNGTLVVQSLHGVFKVKDTTTLFQHLVDGRDMIIIRMPKDFPPFPQKLKFREPQREERICLVTTNFQTKSMSSMVSDTSCTFPSGDGIFWKHWIQTKDGQCGSPLVSTRDGFIVGIHSASNFTNTNNYFTSVPKNFMELLTNQEAQQWVSGWRLNADSVLWGGHKVFMVKPEEPFQPVKEATQL [Q74F], for which the “area with substrate ENLYAQS” value is 0.0679, the “area with substrate ENLYEQS” value is 0.0682, the “area with substrate ENLYGQS” value turned out to be 0.0842 and the “area with substrate ENLYHQS” value stood at 0.0699. The “area with substrate ENLYKQS” value was 0.0225, the “area with substrate ENLYLQS” value came to 0.074, the “area with substrate ENLYMQS” value is 0.0778 and the “area with substrate ENLYNQS” value is 0.0374. Also, the “area with substrate ENLYPQS” value was found to be 0.0741, the “area with substrate ENLYQQS” value amounted to 0.0568 and the “area with substrate ENLYVQS” value was determined as 0.0978.

Take MGESLFKGPRDYNPISSSICHLTNESDGHTTSLYGIGFGPFIITNKHLFRRNNGTLVVQSLHGVFKVKDTTTLQQHLVDGRDMIIIRMPKDFPPFPQKLKFREPQREERICLVTTNFQTKSMSSMVSDTSCTFPSGDGIFWKHWIQTKDGQCGSPLVSTRDGFIVGIHSASNFTNTNNYFTSVPKNFMELLTNQEAQQWVSGWRLNVDSVLWGGHKVFMVKPEEPFQPVKEATQL [A207V]: the “area with substrate ENLYAQS” value was found to be 0.0788, the “area with substrate ENLYDQS” value was determined as 0.0341, the “area with substrate ENLYEQS” value is 0.0677 and the “area with substrate ENLYGQS” value amounted to 0.0523. Further, the “area with substrate ENLYHQS” value was 0.0716, the “area with substrate ENLYIQS” value came out at 0.159, the “area with substrate ENLYKQS” value turned out to be 0.0731 and the “area with substrate ENLYMQS” value is 0.074. The “area with substrate ENLYNQS” value was found to be 0.0655, the “area with substrate ENLYPQS” value was 0.0822, the “area with substrate ENLYQQS” value is 0.0726 and the “area with substrate ENLYSQS” value was determined as 0.0679. Further, the “area with substrate ENLYTQS” value turned out to be 0.0646, the “area with substrate ENLYVQS” value worked out at 0.111, the “area with substrate ENLYWQS” value turned out to be 0.082 and the “area with substrate ENLYYQS” value turned out to be 0.0635.
